# Among all 43,000 compounds or so, about 200 (0.47%) were called active. Another 12% or so got no clear call; they are omitted. Calls follow the shape of the dose curve; as a rule, active = well fitted cell-killing curve with a large enough effect; inconclusive = small, poorly fitted or top-dose-only effect, or effect the other way; inactive = flat fitted curve, though single readings scatter. This is one part of the list.
# Experiment: Cell viability qHTS assay in S16 Pmp22-F2sN cells; also: nearly all actives have a fitted effect of over 65% in size
# Details: S16 Pmp22-F2sN Schwann cells (luciferase reporters placed in the Pmp22 gene) viability, CellTiter-Glo, 24 h; series mostly up to 57.5 µM; activity change, negative = cytotoxicity: at the top concentration
# Method in brief: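 S16 Schwann cells carrying the Pmp22-F2sN reporter, seeded in 1536-well format, were exposed to library compounds for 24 h at 37C. Viability was read as CellTiter-Glo luminescence after 15 min at room temperature.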
# % is scaled to controls: 0 for no effect and ±100 for the full control effect; potency is read from the fitted curve at half-maximal effect.
SMILES,"activity change, negative = cytotoxicity",Potency
CCOC(=O)c1c(Oc2ccc(C(=O)OC)cc2)nnc(-c2ccccc2)c1-c1ccccc1,inactive: -15.4%,
Cc1ccc(C)c(N(C)C(=O)c2cn(C)c(=O)c3ccccc23)c1,inactive: -0.87%,
COc1cc(NC(=O)Cn2c(SCc3ccc(F)cc3)nc3cccnc32)cc(OC)c1,inactive: 5.14%,
Cc1ccc(CCNC(=O)CCc2cn(Cc3ccccc3C)c3ccccc23)cc1,inactive: 5.23%,
Cc1cc(C)cc(-n2cnc3cc(C(=O)NCCc4ccccc4)ccc32)c1,inactive: -4.47%,
Cc1cccc(NC(=O)c2cc(S(=O)(=O)N3CCCCC3)c[nH]2)c1C,inactive: -12.2%,
Brc1csc(CN2CCc3nc(Nc4ccccc4)ncc3C2)c1,inactive: -6.15%,
COc1cc(CN(C(=O)c2cc3ccccc3oc2=O)C2CCS(=O)(=O)C2)cc(OC)c1OC (stereo not drawn),inactive: 0.0163%,
Cc1cccc(Cn2c(SCc3ccc(C(=O)N4CCCCCC4)cc3)nc3ccncc32)c1,inactive: -19.9%,
O=C(c1cccc(Cl)c1)n1nc(-c2ccco2)nc1NCc1cccs1,inactive: -19.5%,
O=C(CNC(=O)c1ccccc1Cl)OCc1cc(=O)n2ccsc2n1,inactive: -1.08%,
COc1ccccc1-n1cc(-c2ccc(C)cc2)nc1S(=O)(=O)CC(=O)Nc1ccccc1C(F)(F)F,inactive: -7.49%,
COc1ccc(CNCCSc2nnnn2-c2ccccc2)cc1,inactive: 2.53%,
COc1ccc(CC(=O)Nc2ccc3nc(Nc4cccc(Cl)c4)cc(C)c3c2)cc1OC,inactive: -12.2%,
COc1ccccc1NC(=O)CSc1nnc(-c2cccc(Cl)c2)o1,inactive: -2.63%,
CCOc1ccccc1-c1nc(-c2ccc(-c3ccccc3)nc2OCC)no1,inactive: 1.48%,
COc1ccccc1Nc1c2c(nc3ccc(NC(=O)/C=C/c4cccc(OC)c4OC)cc13)CCCC2,,active: 25.1 µM
Cc1ccc(Nc2c3c(nc4nncn24)CCC3)cc1,inactive: 3.65%,
COc1cc(OC)c(NC(c2nnc(-c3ccccc3)o2)c2ccc(F)cc2Cl)cc1Cl (stereo not drawn),inactive: -20.9%,
CCc1ccc(-n2nnc(-c3nc(-c4ccccc4)no3)c2C)cc1,inactive: -1.23%,
COc1ccc(CCNC(=O)c2ccc3c(c2)N(Cc2cccc(C)c2)C(=O)c2ccccc2S3(=O)=O)cc1OC,inactive: 11.9%,
COC(=O)c1ccc(NC(=O)C2(S(=O)(=O)c3ccc(C)cc3)CC2)cc1,inactive: 5.39%,
Cc1ccc(C(=O)Nc2nnc(S(=O)(=O)N3CCOCC3)s2)cc1,inactive: 2.06%,
O=C(NCc1ccc(F)cc1)C1CCN(C(=O)c2ccc(-n3ccc4ccccc43)s2)CC1,inactive: -18.5%,

SMILES,"activity change, negative = cytotoxicity",Potency
Cc1ccc(CN2CCCn3nc(C(=O)NCCC(C)C)cc3C2=O)cc1,inactive: -19.2%,
COC(=O)c1sc(-c2ccccc2)cc1NC(=O)c1cccc(F)c1,inactive: 0.0328%,
COc1cccc(CNC(=O)c2c(C)nn(-c3cccc(C)c3)c2-n2cccc2)c1,inactive: -6.08%,
O=C(NCCCc1ccccc1)c1nn(-c2ccccc2F)nc1CO,inactive: -4.39%,
CC(=O)c1ccc(NC(=O)C2CCC(CNS(=O)(=O)c3ccc(Br)s3)CC2)cc1 (stereo not drawn),inactive: 3.85%,
O=C(NC(=O)c1cccc(F)c1)Nc1ccc(-c2cc(C(F)(F)F)nn2-c2ccccc2)cc1,inactive: -0.237%,
Cc1nc(-c2ccc(C)c(N3CCN(C(=O)Nc4ccccc4C(F)(F)F)CC3)c2)no1,inactive: -2.04%,
O=C(NCCc1ccccc1)c1ccc(CSc2nc3cccnc3n2Cc2ccc(F)cc2)cc1,inactive: -25.6%,
CCc1ccc(Sc2cc(C(=O)NCc3ccccc3OC)c3ccccc3n2)cc1,inactive: -20.7%,
Cc1cccc(NC(=O)CSc2cn(CC(=O)N3CCCCCC3)c3ccccc23)c1,inactive: -0.0962%,
Cc1cc(OC(C)C(=O)Nc2c(C(=O)c3ccc(F)cc3)oc3ccccc23)ccc1Cl (stereo not drawn),inactive: 16.6%,
COC(=O)c1ccc(OCC2c3cc(OC)c(OC)cc3CCN2C(=O)Cc2ccc(OC)cc2)cc1 (stereo not drawn),inactive: -1.67%,
CCOc1ccc(N2CC(NC(=O)C(=O)c3c[nH]c4ccccc34)CC2=O)cc1 (stereo not drawn),inactive: 5.33%,
CCn1c(=O)cc(SCC(=O)NCc2ccc(F)cc2Cl)c2ccccc21,inactive: -15.3%,
COc1ccc(C2NC(=O)N(C)C3=C2C(=O)N(c2cccc(Cl)c2)C3)cc1 (stereo not drawn),inactive: -2.71%,
CCc1ccc(Sc2cc(C(=O)NCc3cccc(OC)c3)c3ccccc3n2)cc1,inactive: -12.2%,
CCc1ccc2nc(N(CCN(CC)CC)C(=O)c3ccco3)sc2c1,inactive: 0.057%,
Cc1ccc(NC(=O)c2ccc(-c3cccc(Cl)c3C)o2)cc1,inactive: 26.9%,
COc1ccc(OC)c(CNC(=O)c2cc3c(-c4ccc(OC)c(OC)c4)nn(C)c3s2)c1,inactive: 0.593%,
Cc1ccc(OCc2nc(-c3ccc(C(=O)N4CCN(c5ccccc5F)CC4)cc3)oc2C)cc1,inactive: 7.19%,
O=C1OC(C(=O)Nc2cccc(Br)c2)Cc2ccccc21 (stereo not drawn),inactive: -17.1%,
Cc1cccc(-n2ncc(C(=O)N3CCN(c4ccc(Cl)cc4)CC3)c2C2CCN(C(=O)OC(C)(C)C)CC2)c1,inactive: -8.75%,
Cc1cccc(N2C(=O)N(CC(=O)C(C)(C)C)c3ccccc3S2(=O)=O)c1C,inactive: 12.8%,
Cc1ccc(C)c(NC(=O)CN2CCCN(Cc3cccc(Cl)c3)S2(=O)=O)c1,inactive: -15.9%,

# From PubChem BioAssay AID1508642 (National Center for Advancing Translational Sciences (NCATS), 2021)
